Data: PubChem BioAssay (NCATS)
Values joined by “and” are separate entries in the source; they are usually repeats but may differ in a detail not shown here. Equal values may be shown once. This list was built around the results that the source calls inconclusive (neither active nor inactive); the mix of calls is not that of the screen. A potency beside an inconclusive call is a rough fit, not a confirmed value. For some of these results: “Side channel” marks fits to a control or component signal instead of the main read-out. Active and inactive are the calls of the source.

Biological target: Retinoic acid receptor RXR-alpha (Homo sapiens) (UniProt P19793)
Experiment: qHTS assay for small molecule antagonists of retinoid X receptor alpha signaling (AID 588546; active = well fitted inhibition curve with a large enough effect in the signal ratio, with a control signal flat, not every such curve was filed as active; inconclusive = small, poorly fitted or top-dose-only effect, or effect the other way, or a change in a side signal; inactive = no such curve, though single readings can be large or run the other way; the % refers to the signal ratio;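 for max response: cells stimulated with 9-cis-retinoic acid as agonist; % is set by controls: 0 for no effect and ±100 for the full control effect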)
Conditions: HEK293T RXRa-UAS-bla, beta-lactamase ratio, antagonist mode
How it was run: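 Beta-lactamase reporter inhibition, read as CCF4 fluorescence ratio (ex 405, em 460/530 nm) after 2 h at RT. HEK293T UAS-bla cells, 2500/well, were stimulated with 9-cis-RA at 500 or 100 nM final alongside test compound for 18 h at 37 C.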
Potency is the fitted concentration of half-maximal effect; tags give direction and shape of the fitted curve or compound fluorescence and quenching.

UniProt P19793, sequence (P19793 whole entry, looked up): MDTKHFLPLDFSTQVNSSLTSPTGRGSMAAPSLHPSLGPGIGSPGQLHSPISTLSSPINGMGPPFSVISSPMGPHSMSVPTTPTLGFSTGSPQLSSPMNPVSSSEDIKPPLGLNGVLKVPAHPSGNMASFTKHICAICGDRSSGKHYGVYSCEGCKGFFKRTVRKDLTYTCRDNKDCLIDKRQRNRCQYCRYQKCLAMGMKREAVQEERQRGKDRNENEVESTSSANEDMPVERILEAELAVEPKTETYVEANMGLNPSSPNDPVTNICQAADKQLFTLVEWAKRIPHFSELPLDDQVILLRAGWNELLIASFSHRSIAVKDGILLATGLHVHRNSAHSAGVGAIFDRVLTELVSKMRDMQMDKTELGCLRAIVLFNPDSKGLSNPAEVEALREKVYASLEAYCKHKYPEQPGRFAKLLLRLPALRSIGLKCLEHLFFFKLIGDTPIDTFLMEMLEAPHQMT

SMILES	Potency	max response
C1=CC2C3C=CC(C3)C2C1 (stereo not drawn)	inconclusive: 31.6 µM [activator, partial curve, poor fit]	–
BrCCBr	–	inactive: 9.69% and inactive: -0.139%
CCC[N+](=O)[O-]	–	inconclusive: -3.25%
CCCSP(=O)(OCC)Oc1ccc(Br)cc1Cl (stereo not drawn)	–	inconclusive: -21.8%
Cc1ccc(N)cc1C	–	inactive: -2%
COc1ccccc1N	–	inconclusive: 0.924%
CCS(=O)(=O)c1cccnc1S(=O)(=O)NC(=O)Nc1nc(OC)cc(OC)n1	–	inactive: 8.72%
c1ccc2c(c1)CCNC2	–	inactive: 19.2%

Biological target: Thyroid hormone receptor beta (Homo sapiens) (UniProt P10828)
Experiment: qHTS assay for small molecule antagonists of thyroid hormone receptor beta signaling (AID 588547; active = well fitted inhibition curve with a large enough effect in the signal ratio, with a control signal flat, not every such curve was filed as active; inconclusive = small, poorly fitted or top-dose-only effect, or effect the other way, or a change in a side signal; the % refers to the signal ratio;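 for activity change % (negative = inhibition): cells stimulated with 0.4 nM T3 agonist during compound exposure; % is set by controls: 0 for no effect and ±100 for the full control effect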)
Conditions: TR-UAS-bla HEK293, beta-lactamase ratio, antagonist mode, 18 h
How it was run: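 TR-UAS-bla GripTite HEK293 cells in 2% charcoal/dextran FBS medium were preincubated 4 h at 37 C, given compound (0.59 nM to 92 uM) plus 0.4 nM T3 (final) for 18 h, then CCF4 for 2 h at RT; Hill fit gave IC50.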

UniProt P10828, sequence (P10828 whole entry, looked up): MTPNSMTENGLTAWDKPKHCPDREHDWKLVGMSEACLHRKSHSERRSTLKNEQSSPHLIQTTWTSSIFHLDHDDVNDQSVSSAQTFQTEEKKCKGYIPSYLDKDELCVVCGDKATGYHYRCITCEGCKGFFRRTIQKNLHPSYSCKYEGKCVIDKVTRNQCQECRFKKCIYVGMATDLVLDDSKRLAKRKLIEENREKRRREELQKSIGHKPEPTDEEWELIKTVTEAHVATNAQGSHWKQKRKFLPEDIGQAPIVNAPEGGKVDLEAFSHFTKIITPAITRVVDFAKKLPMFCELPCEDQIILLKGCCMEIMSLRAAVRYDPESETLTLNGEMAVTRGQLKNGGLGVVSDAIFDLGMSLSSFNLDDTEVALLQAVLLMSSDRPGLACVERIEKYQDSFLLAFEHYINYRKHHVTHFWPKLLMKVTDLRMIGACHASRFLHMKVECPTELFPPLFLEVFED

SMILES	activity change % (negative = inhibition)	Potency
BrCCBr	inconclusive: 0.64%	–
COC(C)(C)CCC[C@H](C)C/C=C/C(C)=C/C(=O)OC(C)C	inactive: -10.3%	–
CCNc1nc(NC(C)C)nc(OC)n1	inconclusive: 10.8%	–
CCCSP(=O)(OCC)Oc1ccc(Br)cc1Cl (stereo not drawn)	inactive: 3.3%	–
COP(=S)(OC)Oc1nc(Cl)c(Cl)cc1Cl	inconclusive: -1.42%	–
Cc1c(COC(=O)C2C(/C=C(\Cl)C(F)(F)F)C2(C)C)cccc1-c1ccccc1 (stereo not drawn)	–	inconclusive: 22.4 µM [activator, single point]
C/C=C/c1ccc2c(c1)OCO2	inconclusive: -5.9%	–
COc1ccccc1N	inconclusive: -1.93%	–
Cc1ccccc1CO[C@@H]1C[C@@]2(C(C)C)CC[C@]1(C)O2	–	inconclusive: 0.0112 µM [side channel, falling, full curve, poor fit]
CCS(=O)(=O)c1cccnc1S(=O)(=O)NC(=O)Nc1nc(OC)cc(OC)n1	–	inconclusive: 1.12 µM [cytotoxic, side channel, full curve, poor fit]
COP(=O)(OC)O/C(C)=C/C(=O)N(C)C	–	inconclusive: 3.98 µM [side channel, falling, full curve, poor fit]
OCCBr	–	inconclusive: 1.58 µM [side channel, rising, full curve, poor fit]

Tested on: not listed separately
Experiment: qHTS assay for small molecule agonists of the antioxidant response element (ARE) signaling pathway (AID 651741; active = well fitted activation curve with a large enough effect in the signal ratio; inconclusive = small, poorly fitted or top-dose-only effect, or effect the other way, or a change in a side signal; the % refers to the signal ratio; for activation: % of control where 0% means no effect)
Conditions: HepG2 ARE-bla reporter, beta-lactamase FRET ratio, 16 h; activation: at 96 µM (top of the series; calls come from the whole dose curve) unless noted
How it was run: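 Compounds in DMSO are pinned onto HepG2 ARE-bla cells (2,000/well) that were preincubated 5 h; plates stay 16 h at 37 C, then beta-lactamase activity is detected with LiveBLAzer B/G substrate by fluorescence.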

SMILES	Potency	activation
BrCCBr	inconclusive: 68.6 µM [activator, single point]	–
Cc1ccn2nc(S(=O)(=O)Nc3c(F)cccc3F)nc2n1	inactive	–
CCc1cccc(C)c1N(C(=O)CCl)C(C)COC (stereo not drawn)	active: 24.3 µM	–
CC(Oc1cc(Cl)c(Cl)cc1Cl)C(=O)O (stereo not drawn)	inconclusive: 61.1 µM [activator, partial curve]	–
CC(C)OS(C)(=O)=O	inconclusive: 75 µM [activator, single point]	–
CC(C)N1C(=O)c2ccccc2NS1(=O)=O	inactive	–
CCC[N+](=O)[O-]	–	inconclusive: 8.84%
CCCSP(=O)(OCC)Oc1ccc(Br)cc1Cl (stereo not drawn)	inconclusive: 61.1 µM [activator, single point]	–
Nn1cnnc1	inconclusive: 33.5 µM [side channel, rising, partial curve, poor fit]	–
OCC(Br)CBr (stereo not drawn)	inactive	–
Cc1c(COC(=O)C2C(/C=C(\Cl)C(F)(F)F)C2(C)C)cccc1-c1ccccc1 (stereo not drawn)	inconclusive: 68.6 µM [activator, single point]	–
[CH3][Sn]([CH3])([Cl])[Cl]	–	inconclusive: 10.3%
C#CCC1=C(C)[C@H](OC(=O)[C@H]2[C@H](C=C(C)C)C2(C)C)CC1=O	active: 61.1 µM	–
Cc1ccc(N)cc1C	inconclusive: 75 µM [activator, partial curve, poor fit]	–
CS(=O)(=O)NC(=O)c1cc(Oc2ccc(C(F)(F)F)cc2Cl)ccc1[N+](=O)[O-]	inconclusive: 21.7 µM [inhibitor, full curve, poor fit]	–
C/C=C/c1ccc2c(c1)OCO2	inconclusive: 54.5 µM [activator, partial curve]	–
OCCCCO	inactive	–
CC(C)C#N	inconclusive: 42.2 µM [activator, partial curve]	–
COc1ccccc1N	–	inconclusive: 15.6%
N#CCc1ccccc1	–	inconclusive: 1.68%
Cc1ccccc1CO[C@@H]1C[C@@]2(C(C)C)CC[C@]1(C)O2	inactive	–
CCCCN(CC)c1c([N+](=O)[O-])cc(C(F)(F)F)cc1[N+](=O)[O-]	inactive	–
COP(=O)(OC)O/C(C)=C/C(=O)N(C)C	inconclusive: 68.6 µM [activator, single point]	–
